One molecule from US20240043560A1 can be followed below.

In the assay the target is full-length human CD28 (hCD28, amino acids M1 to S220, accession #P10747) on engineered reporter T-cells (human) (UniProt P10747). Put plainly: cell-based or functional assay.

B1: mAb14216P2 (antibody, from a related filing, V domains shown, part only)
VH: EVQLVESGGGLVQPGGSLRLSCAASGFTFSRNNMHWVRQAPGKGLEYVSGISSNGGRTYYADSVKGRFTISRDNSKNTLYLQMGGLRAADMAVYFCTRDDELLSFDYWGQGTLVTVSS
VL: [sequence of about 100 residues omitted]
Regarding B1, the Fold induction, luciferase activity in engineered reporter T-cells with HEK293/hCD20, absence of TCR stimulation came to 2.8 fold; the Fold induction, luciferase activity in engineered reporter T-cells with HEK293/hCD20, presence of TCR stimulation is 3.26 fold; the Fold induction, luciferase activity in engineered reporter T-cells with HEK293/hCD20/hPSMA, absence of TCR stimulation worked out at 3.95 fold; the Fold induction, luciferase activity in engineered reporter T-cells with HEK293/hCD20/hPSMA, presence of TCR stimulation was found to be 3.15 fold.
